The text below walks through data of the supplement of paper PMC4967469.

What all share (assay): Viability of human cancer cell lines after 72 h of drug (GDSC screen)
Compound in experiment [1]: COCC[n+]1c2c(n(Cc3cnccn3)c1C)C(=O)c1ccccc1C2=O [YM155]
Conditions: top dose 5.12 µM. The procedure:
(§1)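 Human cancer cell lines in 384-well plates, medium with 10% serum, drug for 72 h over a 256-fold dose range (nine 2-fold or five 4-fold steps up to the top dose). Adherent lines were fixed and stained with the nucleic acid dye Syto60, suspension lines read with resazurin; signal relative to control wells, capped at 0 and 100%. One two-parameter sigmoid per drug and line, fitted in a mixed model over all curves with the slope shared within a line.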

Compound in experiment [2]: COC(=O)[C@H](CCSC)NC(=O)c1ccc(NC[C@@H](N)CS)cc1-c1ccccc1 [FTI-277]
Conditions: top dose 1.024 µM; top dose inferred. The protocol:
as §1

Compound in experiment [3]: Cc1ccc(C(=O)N(CCCN)[C@@H](c2nc3cc(Cl)ccc3c(=O)n2Cc2ccccc2)C(C)C)cc1 [SB-715992]
Particulars: top dose 0.128 µM; top dose inferred. The procedure:
as §1

Compound in experiment [4]: CCOc1nc(NC(=O)Cc2cc(OC)ccc2OC)cc(N)c1C#N [JNK Inhibitor VIII]
Conditions: top dose 10 µM; top dose inferred. The procedure: as §1

Compound in experiment [5]: O=C(/C=C/c1cccc(S(=O)(=O)Nc2ccccc2)c1)NO [Belinostat]
Particulars: top dose 20 µM; top dose inferred. The protocol: as §1

Compound in experiment [6]: CC(=O)O[C@@]12CO[C@@H]1C[C@H](O)[C@@]1(C)C(=O)[C@H](O)C3=C(C)[C@@H](OC(=O)[C@H](O)[C@@H](NC(=O)OC(C)(C)C)c4ccccc4)C[C@@](O)([C@@H](OC(=O)c4ccccc4)[C@H]21)C3(C)C [Docetaxel]
Conditions: top dose 0.0125 µM. The procedure: as §1

Compound in experiment [7]: C[C@]1(O)C[C@@H](c2nc(-c3ccc4ccc(-c5ccccc5)nc4c3)c3c(N)nccn32)C1 [OSI-906]
Conditions: top dose 2.56 µM; top dose inferred. The procedure: as §1

Compound in experiment [8]: CC1(C)CNc2cc(NC(=O)c3cccnc3NCc3ccncc3)ccc21 [AMG-706]
Particulars: top dose 2 µM; top dose inferred. The procedure: as §1

Compound in experiment [9]: CN1CCN(c2ccc([N+](=O)[O-])c3no[n+]([O-])c23)CC1 [NSC-207895]
Conditions: top dose 20 µM; top dose inferred. The procedure:
as §1

Compound in experiment [10]: c1ccc2c(CCNc3ccc(Nc4ccncc4)cc3)c[nH]c2c1 [JNJ-26854165]
Conditions: top dose 10 µM. The protocol:
as §1

Compound in experiment [11]: Cc1sc2c(c1C)C(c1ccc(Cl)cc1)=N[C@@H](CC(=O)OC(C)(C)C)c1nnc(C)n1-2 [JQ1]
The protocol:
as §1

Setting [12] is: top dose 1 µM, screen: GDSC drug entry 1218, top dose inferred.
The mark [13] stands for this setting: top dose 2.56 µM, screen: GDSC drug entry 163.

What is called IC50 is the concentration needed to halve the response being measured.

By IC50 is meant the dose at which the fit gives 50% viability; a limit (>, <) means that the fit lies beyond the doses tested. AUC, from the same fit, is the share of area under the viability curve across the 256-fold dose range; the more sensitive the line, the further below 1. For part of these data: A top dose marked as inferred comes from the curve model; the source does not state it. For part of these data: Where an entry number is given, a second screen of the drug exists; the two often differ. A value given as a limit tells only on which side of the number the result lay.

On to “NCI-H1568 (lung adenocarcinoma, adherent)”, for which the AUC was found to be 0.921 in [1]; 0.978 in experiment [2]; 0.968 in experiment [3]; 0.962 in [4]; 0.981 in [5]; 0.699 in [6]. Besides, the AUC in experiment [7] came to 0.899; in experiment [8], 0.966; in experiment [9], 0.972; in experiment [10], 0.797; in experiment [11] (setting [12]), 0.976; in experiment [11] (setting [13]) it was 0.802. Further, the IC50 in experiment [1] is > 5120 nM; in experiment [2], > 1020 nM; in experiment [3], > 128 nM; in [4], > 10000 nM; in experiment [5] it was > 20000 nM; in experiment [6], 3.28 nM. In addition, the IC50 in [7] is > 2560 nM; in experiment [8], > 2000 nM; in experiment [9], > 20000 nM; in experiment [10] it was 6120 nM; in experiment [11] (setting [12]) it was > 1000 nM; in experiment [11] (setting [13]), 1640 nM.

For “NCI-H1623 (lung adenocarcinoma, adherent)”, the AUC in experiment [1] stood at 0.218; in experiment [2], 0.985; in [3], 0.981; in experiment [4], 0.985; in experiment [5], 0.433; in experiment [6], 0.836. For the same cell line, the AUC worked out at 0.874 in [7]; 0.982 in experiment [8]; 0.929 in experiment [9]; 0.925 in experiment [10]; 0.982 in experiment [11] (setting [12]); 0.964 in experiment [11] (setting [13]). The IC50 in experiment [1] is 38.7 nM; in experiment [2] it was > 1020 nM; in [3], > 128 nM; in [4], > 10000 nM; in [5] it was 787 nM; in [6] it was 11.1 nM. In addition, the IC50 is > 2560 nM in [7]; > 2000 nM in experiment [8]; > 20000 nM in experiment [9]; > 10000 nM in experiment [10]; > 1000 nM in experiment [11] (setting [12]); > 2560 nM in experiment [11] (setting [13]).

In the case of “NCI-H1693 (lung adenocarcinoma, adherent)”, the AUC stood at 0.106 in [1]; 0.969 in experiment [2]; 0.975 in [3]; 0.93 in experiment [4]; 0.598 in experiment [5]; 0.902 in experiment [6]. Besides, the AUC was 0.949 in experiment [7]; 0.926 in [8]; 0.967 in experiment [9]; 0.738 in experiment [10]; 0.969 in experiment [11] (setting [12]); 0.727 in [11] (setting [13]). The IC50 was < 20 nM in experiment [1]; > 1020 nM in experiment [2]; > 128 nM in experiment [3]; > 10000 nM in [4]; 2720 nM in experiment [5]; > 12.5 nM in experiment [6]. Further, the IC50 is > 2560 nM in experiment [7]; > 2000 nM in experiment [8]; > 20000 nM in experiment [9]; 4610 nM in [10]; > 1000 nM in experiment [11] (setting [12]); 1060 nM in [11] (setting [13]).

Consider “NCI-H1755 (lung adenocarcinoma, adherent)”, for which the AUC in experiment [1] came out at 0.372; in [2] it was 0.981; in [3] it was 0.984; in experiment [4], 0.974; in experiment [5], 0.209; in experiment [6] it was 0.801. Besides, the AUC in [7] turned out to be 0.949; in experiment [8], 0.981; in experiment [9] it was 0.984; in experiment [10], 0.825; in experiment [11] (setting [12]) it was 0.977; in experiment [11] (setting [13]) it was 0.689. Further, the IC50 in [1] is 134 nM; in experiment [2], > 1020 nM; in [3] it was > 128 nM; in experiment [4], > 10000 nM; in experiment [5], 148 nM; in experiment [6], 7.24 nM. In addition, the IC50 in experiment [7] is > 2560 nM; in [8], > 2000 nM; in experiment [9], > 20000 nM; in experiment [10], 7330 nM; in [11] (setting [12]) it was > 1000 nM; in experiment [11] (setting [13]), 594 nM.

For the cell line “NCI-H1781 (lung adenocarcinoma, adherent)”, the AUC in experiment [1] amounted to 0.124; in [2], 0.977; in experiment [3], 0.964; in experiment [4] it was 0.989; in experiment [5], 0.688; in [6], 0.857. Moreover, the AUC came out at 0.987 in experiment [7]; 0.98 in experiment [8]; 0.939 in experiment [9]; 0.905 in [10]; 0.988 in experiment [11] (setting [12]); 0.926 in [11] (setting [13]). In addition, the IC50 in experiment [1] is 20.1 nM; in experiment [2], > 1020 nM; in [3], > 128 nM; in [4] it was > 10000 nM; in experiment [5] it was 4200 nM; in experiment [6], 10.2 nM. The IC50 was > 2560 nM in experiment [7]; > 2000 nM in [8]; > 20000 nM in experiment [9]; > 10000 nM in experiment [10]; > 1000 nM in [11] (setting [12]); > 2560 nM in experiment [11] (setting [13]).
